The supplement of paper PMC8728848
The list shows a part of the results.

Experiments:
Test in all cases: glycan array binding signal (z-score within array); higher = stronger binding
Conditions in all cases: glycan notation: IUPAC condensed, linker removed
[1] = molecular target: Gal6S(b1-4)Glc6S
Procedure, shortened: (§1)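 Negative Z-scores can be read as non-binding. The Z-score is calculated within each array and then averaged across arrays of one protein sequence at different concentrations or buffers and across linkers. Arrays, 3228 in all, were curated from the Consortium for Functional Glycomics database and kept only where the protein sequence was available.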

[2] = molecular target: Gal6S(b1-4)GlcNAc
Procedure, shortened: as §1

[3] = molecular target: Gal6S(b1-4)GlcNAc6S
Procedure, shortened: as §1

[4] = molecular target: GalNAc(a1-3)Gal
Procedure, shortened: as §1

[5] = molecular target: GalNAc(a1-3)GalNAc
Procedure, shortened: as §1

[6] = molecular target: GalNAc(a1-3)GalNAc(b1-3)Gal(a1-4)Gal(b1-4)Glc
Procedure, shortened: as §1

[7] = molecular target: GalNAc(a1-3)GalNAc(b1-3)Gal(a1-4)Gal(b1-4)GlcNAc
Procedure, shortened: as §1

[8] = molecular target: GalNAc(b1-3)Gal
Procedure, shortened: as §1

[9] = molecular target: GalNAc(b1-3)Gal(a1-4)Gal(b1-4)GlcNAc
Procedure, shortened: as §1

[10] = molecular target: GalNAc(b1-3)Gal(a1-4)Gal(b1-4)GlcNAc(b1-3)Gal(b1-4)Glc
Procedure, shortened: as §1

[11] = molecular target: GalNAc(b1-3)Gal(a1-6)Gal(b1-4)Glc
Procedure, shortened: as §1

[12] = molecular target: GalNAc(b1-3)GalNAc
Procedure, shortened: as §1

[13] = molecular target: GalNAc(b1-4)Gal(b1-4)Glc
Procedure, shortened: as §1

[14] = molecular target: GalNAc(b1-4)GlcNAc
Procedure, shortened: as §1

[15] = molecular target: GalNAc(b1-4)GlcNAc(b1-2)Man(a1-3)[GalNAc(b1-4)GlcNAc(b1-2)Man(a1-6)]Man(b1-4)GlcNAc(b1-4)GlcNAc
Procedure, shortened: as §1

[16] = molecular target: GalNAc(b1-6)GalNAc
Procedure, shortened: as §1

[17] = molecular target: Glc(a1-4)Glc
Procedure, shortened: as §1

[18] = molecular target: Glc(a1-4)Glc(a1-4)Glc(a1-4)Glc
Procedure, shortened: as §1

[19] = molecular target: Glc(a1-6)Glc(a1-6)Glc
Procedure, shortened: as §1

[20] = molecular target: Glc(a1-6)Glc(a1-6)Glc(a1-6)Glc
Procedure, shortened: as §1

[21] = molecular target: Glc(b1-4)Glc
Procedure, shortened: as §1

[22] = molecular target: Glc(b1-6)Glc
Procedure, shortened: as §1

[23] = molecular target: GlcA(b1-3)Gal
Procedure, shortened: as §1

[24] = molecular target: GlcA(b1-3)GlcNAc
Procedure, shortened: as §1

[25] = molecular target: GlcA(b1-6)Gal
Procedure, shortened: as §1

[26] = molecular target: GlcNAc(a1-3)Gal(b1-4)GlcNAc
Procedure, shortened: as §1

[27] = molecular target: GlcNAc(a1-4)Gal(b1-3)GlcNAc
Procedure, shortened: as §1

[28] = molecular target: GlcNAc(a1-4)Gal(b1-4)GalNAc
Procedure, shortened: as §1

[29] = molecular target: GlcNAc(a1-4)Gal(b1-4)GlcNAc
Procedure, shortened: as §1

[30] = molecular target: GlcNAc(a1-4)Gal(b1-4)GlcNAc(b1-3)Gal(b1-4)Glc
Procedure, shortened: as §1

[31] = molecular target: GlcNAc(a1-4)Gal(b1-4)GlcNAc(b1-3)Gal(b1-4)GlcNAc
Procedure, shortened: as §1

[32] = molecular target: GlcNAc(a1-4)Gal(b1-4)GlcNAc(b1-3)Gal(b1-4)GlcNAc(b1-3)Gal(b1-4)GlcNAc
Procedure, shortened: as §1

[33] = molecular target: GlcNAc(a1-4)Gal(b1-4)GlcNAc(b1-3)Gal(b1-4)[Fuc(a1-3)]GlcNAc(b1-3)Gal(b1-4)[Fuc(a1-3)]GlcNAc
Procedure, shortened: as §1

[34] = molecular target: GlcNAc(a1-6)Gal(b1-4)GlcNAc
Procedure, shortened: as §1

[35] = molecular target: GlcNAc(b1-2)Gal(b1-3)GalNAc
Procedure, shortened: as §1

[36] = molecular target: GlcNAc(b1-2)Man(a1-3)[GlcNAc(b1-2)Man(a1-6)]Man(b1-4)GlcNAc(b1-4)GlcNAc
Procedure, shortened: as §1

[37] = molecular target: GlcNAc(b1-2)Man(a1-3)[GlcNAc(b1-2)Man(a1-6)]Man(b1-4)GlcNAc(b1-4)[Fuc(a1-6)]GlcNAc
Procedure, shortened: as §1

[38] = molecular target: GlcNAc(b1-2)Man(a1-3)[GlcNAc(b1-4)][GlcNAc(b1-2)Man(a1-6)]Man(b1-4)GlcNAc(b1-4)GlcNAc
Procedure, shortened: as §1

[39] = molecular target: GlcNAc(b1-2)[GlcNAc(b1-4)]Man(a1-3)[GlcNAc(b1-2)Man(a1-6)]Man(b1-4)GlcNAc(b1-4)GlcNAc
Procedure, shortened: as §1

[40] = molecular target: GlcNAc(b1-2)[GlcNAc(b1-4)]Man(a1-3)[GlcNAc(b1-4)][GlcNAc(b1-2)Man(a1-6)]Man(b1-4)GlcNAc(b1-4)GlcNAc
Procedure, shortened: as §1

[41] = molecular target: GlcNAc(b1-2)[GlcNAc(b1-4)]Man(a1-3)[GlcNAc(b1-4)][GlcNAc(b1-2)[GlcNAc(b1-6)]Man(a1-6)]Man(b1-4)GlcNAc(b1-4)GlcNAc
Procedure, shortened: as §1

[42] = molecular target: GlcNAc(b1-2)[GlcNAc(b1-6)]Man(a1-6)[GlcNAc(b1-2)Man(a1-3)]Man(b1-4)GlcNAc(b1-4)GlcNAc
Procedure, shortened: as §1

[43] = molecular target: GlcNAc(b1-2)[GlcNAc(b1-6)]Man(a1-6)[GlcNAc(b1-2)Man(a1-3)][GlcNAc(b1-4)]Man(b1-4)GlcNAc(b1-4)GlcNAc
Procedure, shortened: as §1

[44] = molecular target: GlcNAc(b1-3)Gal
Procedure, shortened: as §1

[45] = molecular target: GlcNAc(b1-3)Gal(b1-3)GalNAc
Procedure, shortened: as §1

B1: 3FTT (Staphylococcus aureus), Q5HCZ5 (protein)
chain: MTEKEKMLAEKWYDANFDQYLINERARAKDICFELNHTRPSATNKRKELIDQLFQTTTDNVSISIPFDTDYGWNVKLGKNVYVNTNCYFMDGGQITIGDNVFIGPNCGFYTATHPLNFHHRNEGFEKAGPIHIGSNTWFGGHVAVLPGVTIGEGSVIGAGSVVTKDIPPHSLAVGNPCKVVRKIDNDLPSETLNDETIK
glycan array binding signal (z-score) [1]: -0.13 | glycan array binding signal (z-score) [2]: -0.304 | glycan array binding signal (z-score) [3]: -0.226 | glycan array binding signal (z-score) [4]: 0.016 | glycan array binding signal (z-score) [5]: -0.129 | glycan array binding signal (z-score) [6]: -0.185 | glycan array binding signal (z-score) [7]: -0.01 | glycan array binding signal (z-score) [8]: -0.332 | glycan array binding signal (z-score) [9]: -0.016 | glycan array binding signal (z-score) [10]: 0.029 | glycan array binding signal (z-score) [11]: -0.191 | glycan array binding signal (z-score) [12]: -0.264 | glycan array binding signal (z-score) [13]: -0.095 | glycan array binding signal (z-score) [14]: 0.059 | glycan array binding signal (z-score) [15]: 5.95 | glycan array binding signal (z-score) [16]: 0.17 | glycan array binding signal (z-score) [17]: -0.061 | glycan array binding signal (z-score) [18]: 0.344 | glycan array binding signal (z-score) [19]: -0.118 | glycan array binding signal (z-score) [20]: 0.216 | glycan array binding signal (z-score) [21]: -0.457 | glycan array binding signal (z-score) [22]: -0.054 | glycan array binding signal (z-score) [23]: -0.055 | glycan array binding signal (z-score) [24]: -0.15 | glycan array binding signal (z-score) [25]: -0.157 | glycan array binding signal (z-score) [26]: -0.033 | glycan array binding signal (z-score) [27]: 0.016 | glycan array binding signal (z-score) [28]: 0.301 | glycan array binding signal (z-score) [29]: 0.089 | glycan array binding signal (z-score) [30]: 0.079 | glycan array binding signal (z-score) [31]: 0.607 | glycan array binding signal (z-score) [32]: -0.033 | glycan array binding signal (z-score) [33]: -0.099 | glycan array binding signal (z-score) [34]: 0.025 | glycan array binding signal (z-score) [35]: 0.3 | glycan array binding signal (z-score) [36]: -0.115 | glycan array binding signal (z-score) [37]: 0.04 | glycan array binding signal (z-score) [38]: -0.062 | glycan array binding signal (z-score) [39]: -0.055 | glycan array binding signal (z-score) [40]: 0.102 | glycan array binding signal (z-score) [41]: -0.003 | glycan array binding signal (z-score) [42]: -0.134 | glycan array binding signal (z-score) [43]: 0.124 | glycan array binding signal (z-score) [44]: 0.059 | glycan array binding signal (z-score) [45]: -0.178
